Experiment: soluble fraction after stress (log2 fold change); higher = more stays soluble; pooled small domains, quantitative proteomics
Details: stress: 75 degC
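Note: 20 min heating vs room temperature control held 20 min.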

Sequence | soluble fraction (log2)
HMAAVLKQGSQGDSVKTVQQKLIRWGYLKGSADGIFGAKTKAAVIAFQKKNGLTADGIIGTRTAQALGISL | -1.78
HMALDYYGVLGVNQDATNREIKSAYRKLARELHPDVNPSEEAAEKFKDVTTAYEVLSDPEKRRIVDMGGDP | 0.0261
HMATGTVKWFNSTKGYGFIAPDDGGKDIFVHISAVERAGLTGLQDNQKIDFEMQSGRDGRASASDLKL | -0.11
HMGGYEVQSGDTLWDLAVRFYGSGAKASAIYEANRDVIEEEAKKRGKGSSSSGYWIFPGTKLAI | -0.275
HMLFDTARAYTDSEVKLGEAFDGIRTEVYIATKTAAQNAEDFWKDLHTSLTNLRTDYIDLYQFH | 0.126
HMNNLYETLGVERTASQNEIKKAYRVLARKYHPDANPDDAVAEQKFKEVAMAYEILSDDQKREEYDRFGS | 0.28
HMRADRLISLVLLLQTRGRMTARELADELEVTERTIYRDVIALSSAGIPLYTDRGPGGGIALLDS | -1.77
HMSENDYAILGVKESDSNEEIKKAFRRLAIENHPDKIEHLGETARKKAELNFSKINEAYQRIKKQRG | 0.0683
HMSGKWALLVLFTLNKSNGTPVRFKQLERDIPDISQKMLTSVLRSLESDGLVSRKAYAEIPPRVEYSLT | -1.14

Reference: the domain aggregation screens of Martell et al. (2025)
